Data on one molecule can be found in patent US20230416360A1 (SIMCERE ZAIMING PHARMACEUTICAL, published 2023).

Test [1] has as its target T1, human CD22-ECD-His (human, UniProt P20273 20-687).
T1 construct: Made in HEK293E, purified on nickel column; also called hCD22-ECD-His; recombinant human CD22-ECD His; not shown: His tag
T1 sequence: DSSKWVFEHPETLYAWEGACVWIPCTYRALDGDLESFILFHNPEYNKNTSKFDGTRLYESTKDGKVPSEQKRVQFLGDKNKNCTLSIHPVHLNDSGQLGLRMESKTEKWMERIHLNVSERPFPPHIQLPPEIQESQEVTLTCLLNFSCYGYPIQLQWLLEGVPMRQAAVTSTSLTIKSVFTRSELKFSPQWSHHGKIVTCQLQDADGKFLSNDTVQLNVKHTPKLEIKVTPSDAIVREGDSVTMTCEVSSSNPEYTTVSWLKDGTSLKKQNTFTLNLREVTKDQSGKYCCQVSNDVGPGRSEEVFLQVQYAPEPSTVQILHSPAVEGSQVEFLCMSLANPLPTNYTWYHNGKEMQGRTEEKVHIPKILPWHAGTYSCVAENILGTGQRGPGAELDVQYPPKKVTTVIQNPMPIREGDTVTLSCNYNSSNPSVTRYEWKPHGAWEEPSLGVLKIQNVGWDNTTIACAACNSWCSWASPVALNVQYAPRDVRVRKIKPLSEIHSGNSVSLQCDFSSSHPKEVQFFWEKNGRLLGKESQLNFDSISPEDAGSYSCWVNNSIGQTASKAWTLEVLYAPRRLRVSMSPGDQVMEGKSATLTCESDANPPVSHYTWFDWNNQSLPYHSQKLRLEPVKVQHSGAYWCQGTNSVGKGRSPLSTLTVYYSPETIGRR
Kind of test: ELISA, antibody coated 2 ug/mL, hCD22-ECD-His titrated.

The target in test [2] is T2, human CD22 (full length, on cells) (human, UniProt P20273 20-847).
T2 construct: Raji cells carry endogenous human CD22; also called CHO-K1-human CD22 2C4; CHO-K1-human CD22 1G5
T2 sequence: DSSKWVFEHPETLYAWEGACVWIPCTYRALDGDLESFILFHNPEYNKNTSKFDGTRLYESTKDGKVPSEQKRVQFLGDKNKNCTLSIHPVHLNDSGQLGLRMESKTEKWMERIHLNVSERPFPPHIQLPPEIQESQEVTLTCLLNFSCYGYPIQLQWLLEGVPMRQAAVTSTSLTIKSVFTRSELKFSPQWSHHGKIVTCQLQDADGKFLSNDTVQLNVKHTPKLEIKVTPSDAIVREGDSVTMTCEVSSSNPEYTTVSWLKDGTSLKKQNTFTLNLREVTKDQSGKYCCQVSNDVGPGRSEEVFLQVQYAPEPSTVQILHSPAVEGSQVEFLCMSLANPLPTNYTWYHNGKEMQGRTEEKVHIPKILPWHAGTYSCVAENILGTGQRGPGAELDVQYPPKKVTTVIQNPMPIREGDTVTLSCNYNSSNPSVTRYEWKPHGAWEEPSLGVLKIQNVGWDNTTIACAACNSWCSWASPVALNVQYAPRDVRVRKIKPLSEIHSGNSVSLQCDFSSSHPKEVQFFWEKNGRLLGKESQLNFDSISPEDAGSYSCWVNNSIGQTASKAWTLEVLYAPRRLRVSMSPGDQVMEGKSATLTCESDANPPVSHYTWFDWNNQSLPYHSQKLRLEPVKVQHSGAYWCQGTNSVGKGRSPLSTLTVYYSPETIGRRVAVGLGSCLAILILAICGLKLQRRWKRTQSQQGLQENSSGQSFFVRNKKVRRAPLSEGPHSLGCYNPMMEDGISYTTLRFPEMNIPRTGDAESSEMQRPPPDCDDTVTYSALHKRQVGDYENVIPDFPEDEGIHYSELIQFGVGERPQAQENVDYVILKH
Put plainly: FACS, CHO-K1-human CD22 2C4 cells. The source says:
(§1) The required cells were scale-up cultured in a T-75 cell culture flask to the logarithmic growth phase. For the adherent cell CHO-K1, the medium was aspirated, the cells were washed 2 times with PBS buffer, and then digested with trypsin. After the digestion was terminated, the cells were washed 2 times with PBS buffer. For suspension cell Raji, the medium supernatant was directly centrifuged and discarded, and the cell pellet was washed 2 times with PBS. […] The mixture was centrifuged and washed 3 times with PBS buffer, Alexa Flour 488-labeled secondary antibody (purchased from Invitrogen, catalog number: A-11013) was added at 50 μl/well, and incubated on ice for 1 hour. The obtained mixture was centrifuged and washed 5 times with PBS, and FACS (FACS Canto™, purchased from BD Company) was used for detection and result analysis. Data analysis was performed by software (CellQuest) to obtain the mean fluorescence density (MFI) of the cells. And then software (GraphPad Prism8) was used for analysis, data fitting, and EC50 value calculation.

Test [3] has as its target T2, human CD22 (full length, on cells). Kind of test: FACS, Raji cells.
From the text: as §1

B1: hL22 scFv-hFc (Fc fusion)
chain: QVQLQQSGAEVKKPGSSVKVSCKASGYTFTSYWLHWVRQAPGQGLEWIGYINPRNDYTEYNQNFKDKATITADESTNTAYMELSSLRSEDTAFYFCARRDITTFYWGQGTTVTVSSGGGGSGGGGSGGGGSDIQLTQSPSSLSASVGDRVTMSCKSSQSVLYSANHKNYLAWYQQKPGKAPKLLIYWASTRESGVPSRFSGSGSGTDFTFTISSLQPEDIATYYCHQYLSSWTFGGGTKLEIK[human IgG1 Fc with changes cut from this listing]
notes: Control antibody as scFv-hFc; also called HL22 scFv-Fc
In test [1], B1 registered an EC80 of 0.93 nM. In addition, in test [2], the EC50 is 2.5 nM and the “Max MFI” value amounted to 15200. In test [3], the EC50 was 3.8 nM and the “Max MFI” value came to 3080.
